Data: the supplement of paper PMC10126150
Sequences with one replicate were seen in a single cluster, so their values are uncertain.

Tested on: ATP
Assay: switch fluorescence ratio, 500 uM ATP over buffer (Cy3 cluster intensity, sum of 5 cycles each) (fold (ratio)); higher = stronger signal-on switching upon ATP binding; sequences stand for … in TCGTCGGCAGCGTCAGATGTGTATAAGAGACAGTTTTTTTTTTTTTTTTTTTTTTTTT…TC
Conditions: aptamer strand: ATP DNA aptamer (quencher-CACCTGGGGGAGTATTGCGGAGGAAGG + anchor), 100 nM annealed; ATP concentration: 500 uM; one replicate
Procedure, shortened: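 The fluorescence ratio divides summed target-cycle Cy3 intensity by summed buffer-cycle Cy3 intensity for each cluster and is averaged per switch-domain sequence. Cy3-labelled switching-strand clusters on a modified Illumina MiSeq flow-cell were annealed to 100 nM quencher-labelled ATP aptamer, then imaged in selection buffer and again after 15 min with 500 uM ATP at 22 °C. Five such cycles were run, with NaOH stripping and re-annealing between them, and clusters outside 100-1000 RFU were excluded.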
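Note: ATP exposure 15 min at 22 °C before imaging.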

Sequence | switch fluorescence ratio
AGGTGCTCGC | 0.989
TTTAGGTAGC | 1.03
TTATTTTCTT | 1
AAAGGACTAA | 0.989
GGGTGTTTCA | 1.03
AAGAAAGAG | 1
GTTTGTATCA | 1.03
AGCGTACGAT | 1.04
ATAGGCAAGC | 1.24
AGTCACGCTG | 0.975
GGGGGGCCC | 0.969
CGCGCTTTGA | 0.996
GGAATTATAT | 1.05
GGGAATCTTA | 0.993
AGCGATTCGG | 0.995
GAAACTCTTT | 0.998
ACGTAAGGCT | 1.12
GTATGGACGT | 0.988
GTTGGTCCTG | 1.03
GATGGTCTTA | 0.97
CAGAAATTTT | 1.32
GTTCGTGGCC | 1.02
AAGATGAATG | 0.994
AGCTAGTTAG | 1.04
TACTTTGACG | 1.24
CGCGGTTGGG | 0.983

Sequence | switch fluorescence ratio
TGATGTGAGT | 0.996
ATTCATACAA | 0.995
AATCGTGTGG | 0.901
TGAATTAACC | 0.992
TAGGAGAGC | 1.08
ATTTCATGGC | 1.08
TATGAGATTG | 0.992
CCGTGCGAGA | 1.36
TGATTATGTG | 0.962
CATAAATAAG | 0.97
TAATTTCCGC | 1.15
GAGAAAACGC | 0.995
CCTAAAATTC | 1.13
AAAATGGGCG | 1.06
CGTGGTAAAT | 0.998
TACTTCCAT | 1.04
AATGAAGCGG | 0.997
TGCGCCCAAC | 1.16
GCTGAACCCA | 1.08
AATATAGTGC | 1.09
TTATCTTCGT | 1.03
TAATACGACT | 1.08
TAAAGGGTT | 0.966
CGAAACTGGT | 1.11
CCGTTAACGG | 0.973
GGTCGCTGGG | 0.973

Sequence | switch fluorescence ratio
CGTGAGCAGA | 1.04
ACTGCGTAAG | 1.03
CAGTCTACTT | 0.983
TCTAGCTGAC | 1.55
CCGCTTTA | 4.26
CGTCTGTGGA | 1.01
AGCCTTCTCC | 2.15
CGGGATTACT | 1.11
AACGTCCGGT | 1.02
GAGGTAGGAG | 0.985
ATCAAGCCGA | 0.951
CCATACGGGA | 1.01
CGCGGACCAG | 1
CCTCGACCGA | 1.3
TGTGAGCGCA | 1.01
CAGACGACCC | 1.68
GTTGATTACG | 0.973
AGCGTTATCG | 1.03
TCTGACAGGA | 1.01
ATGTTCCAAT | 1
CTTGGGCCTT | 1
TGTTACCAGT | 1.03
AAATCACAA | 1.26
CTCTTGCTTA | 1.04
GGTGTTGGAA | 1.05
CGGGTGGCT | 1

Sequence | switch fluorescence ratio
CGCCGTTCAA | 1.07
AAACTTAGGA | 1.07
ATTCGTACAT | 1.04
CGCGACGCTA | 3.49
TAATATGCG | 0.981
CTTAGAAAG | 1.05
TTGGAACCC | 1.03
TCGAGGCCTT | 0.981
TTATAGGTA | 1
CGAGTGGGTC | 1.05
ACGGTTCATT | 1.05
TTCGCGCAAA | 1.27
CCTTGACGCT | 1.22
ATAATGGCT | 1.03
TATGTCAGG | 0.987
CAGTTGTGTC | 1.03
GATCTTTTC | 1.05
ATCCAGACCC | 1.12
ATGGCTGGTC | 1.01
GGGAAGAATC | 0.976
AGAGGATGCC | 1.11
GGTTACCCTT | 0.965
TTGGTTTCTA | 0.968
CGCCAGACTG | 1.07
TCAGAATACG | 1.04
GGTTGTGAGG | 0.958

Sequence | switch fluorescence ratio
AGGACTTATT | 1.02
TTGGTATTTC | 0.969
ACCCCACTAT | 1.25
TGGGCATCCC | 1.01
ACCATCAATG | 1.02
AGGCAATCCG | 1.05
ATCGTAGTGC | 1.05
CGCCGCACTG | 2.84
CAGGGACTGT | 1.03
CGTCGATTCG | 0.954
CGTGGTAGTT | 0.971
AAAAGTACT | 1.09
GTGTGAAC | 0.994
GAGTTCAACG | 0.947
CTAACTATCG | 1.02
TTAGCACC | 1.06
CCACCCCCCG | 1.5
TCTTTAGTGC | 1.06
GGCGGACGTA | 1.06
GATGTATGCT | 1.01
CCTTGCTAGT | 1.13
GTATGCTTTG | 0.977
CAGTTAGCGC | 1.04
CAGGCCTTGC | 1.06
GTGTAAGCTT | 0.988
CGTCAGAACG | 1.03

Sequence | switch fluorescence ratio
TTCCCGAAGG | 1.01
AGGAGCGA | 1.06
CCAGGCAGAA | 1.07
CTTTGTTCGT | 0.969
CGAGTTTAGT | 1.11
CGGAAAGGTC | 1.01
ATGCGAATTA | 1
GTTAAATCTC | 1.03
GAAACGTAAA | 1.08
TGAAGGCAAA | 0.992
CATGTAGGGG | 1.03
CCGCATCAAA | 5.04
AGGGGTGTAT | 0.994
TAACCGTTGG | 1.08
AAGCACCCGA | 1.17
TTTGCCGATC | 0.986
GCTGGAAAGA | 0.977
GAGAAGCTTT | 0.991
GATAGTCCAA | 0.995
GCGTGAGACT | 1.02
TCGGAGCAGA | 5.09
TTCATTAGAA | 0.993
ATGAAGGTGT | 1.18
GCTTTCAGAT | 0.995
